The shares of active, inactive and inconclusive entries below differ from those in the screen. For some assays here: Potencies of inconclusive entries are left out as doubtful fits. The source made the active and inactive calls. The call rests on the fitted dose curve; in most records, active means well fitted curve in the direction sought with a large enough effect; inconclusive means small, poorly fitted or top-dose-only effect, or another doubt; inactive means no such curve, though single readings can be large; an effect the other way counts as inactive or inconclusive.
Assays:
[1] = P-glycoprotein substrates identified in KB-3-1 adenocarcinoma cell line, qHTS therapeutic library screen (AID 1346986);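 further: potency means the concentration at half of the fitted maximal effect; potency is for cytotoxicity meaning loss of cell viability; nearly all actives have a fitted effect of over 60% in size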
Procedure, shortened: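 KB-3-1 parental cells and P-gp-overexpressing KB-8-5-11 (colchicine omitted during assay) plated at 500 cells/well, dosed in dose-response, incubated 72 h at 37 degree C. CellTiter-Glo luminescence read; KB-8-5-11 also tested with tariquidar.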

[2] = P-glycoprotein substrates identified in KB-8-5-11 adenocarcinoma cell line, qHTS therapeutic library screen (AID 1346987); conditions: activity change, negative = cytotoxicity: at 44.5 µM (top of the series); further: nearly all actives have a fitted effect of over 65% in size; further: potency means the concentration at half of the fitted maximal effect
Procedure, shortened: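 KB-8-5-11: colchicine-selected sub-line of KB-3-1 over-expressing P-gp; assay medium lacked colchicine. 72 h drug exposure at 37 degree C, CellTiter-Glo.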

[3] = Primary qHTS for inhibitors of nuclear receptor binding SET domain protein 2 (NSD2) in an isogenic RCH-ACV NSD2 p.E1099K mutant (9B) (AID 1645876); conditions: activity change, negative = viability loss: at 44.9 µM (top of the series) unless noted; further: nearly all actives have a fitted effect of over 70% in size; further: potency means the concentration at half of the fitted maximal effect
[4] = Primary qHTS for inhibitors of nuclear receptor binding SET domain protein 2 (NSD2) in an RCH-ACV wild type WT cells (2C) (AID 1645877); conditions: activity change, negative = cell killing: at 44.9 µM (top of the series) unless noted; further: potency means the concentration at half of the fitted maximal effect; nearly all actives have a fitted effect of over 70% in size
[5] = qHTS to identify inhibitors of the type 1 interferon - major histocompatibility complex class I in skeletal muscle: primary screen against the NCATS Mechanism Interrogation Plate v5.0 (MIPE) Libary (AID 1347411); conditions: iHSKM cells + IFN-b, HiBiT-tagged MHC-I luminescence, 24 h; series mostly up to 45.8 µM; further: nearly all actives have a fitted effect of over 65% in size
Procedure, shortened: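 Immortalized human C25cl48 myoblasts with HiBit knocked into endogenous HLA-B*08:01 were stimulated with 4.0 ng/ml IFN-beta and exposed to compounds (11-point 1:3 titration, top 46 uM final) for 24 hrs at 37 C; HiBiT lytic luminescence measured.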
Tags describe the fitted curve by direction and shape.

Row | Compound | Potency [1] | Potency [2] | Potency [3] | Potency [4] | Potency [5]
1 | CC(C)(C)n1nc(-c2cccc3ccccc23)c2c(N)ncnc21 | inconclusive [inhibitor, single point] | inactive | inconclusive [inhibitor, single point] | inconclusive [inhibitor, single point] | 
2 | Nc1nonc1-c1nc2cnccc2n1C1CC1 | inconclusive [inhibitor, single point] | inconclusive [inhibitor, single point] | active: 20.6 µM | active: 8.2 µM | 
3 | O=C1NC(=O)/C(=C/c2ccc3c(c2)OCO3)S1 | inconclusive [inhibitor, single point] | inconclusive [inhibitor, single point] | inconclusive [inhibitor, single point] | inconclusive [inhibitor, single point] | 
4 | COc1ccc(COc2ccc(Cc3cnc(N)nc3N)cc2OC)cc1 | inconclusive [inhibitor, partial curve, poor fit] | inconclusive [inhibitor, single point] | inconclusive [inhibitor, single point] and inactive | inconclusive [inhibitor, single point] | inactive
5 | CCCCCCCCCCC(O)C1C=CC2C(=O)N(c3ccccc3)C(=O)C2N1Nc1ccc([N+](=O)[O-])cc1 (centres undefined) | inconclusive [inhibitor, single point] | inactive | inconclusive [inhibitor, single point] | inconclusive [inhibitor, single point] | 
6 | CC(C)(C)n1nc(Cc2cccc([N+](=O)[O-])c2)c2c(N)ncnc21 | inconclusive [inhibitor, partial curve, poor fit] | inconclusive [inhibitor, single point] | inconclusive [inhibitor, single point] | inconclusive [inhibitor, single point] | 
7 | CC(C)(C)n1nc(Cc2cccc3ccccc23)c2c(N)ncnc21 | inconclusive [inhibitor, single point] | inconclusive [inhibitor, single point] | inconclusive [inhibitor, single point] | inconclusive [inhibitor, single point] | 

Source: PubChem BioAssay (NCATS)
